# Laboratory results as given in the supplement of paper PMC4166925.
# ± gives the standard deviation of the averaged measurements. The full ranking holds about 33,000 sequences; the median of “E-score (dimensionless, -0.5 to 0.5)” is about -0.046, and the highest 2% start at about 0.36. The list shows a part of the results.
# System: T1, SpTbr T-box DNA-binding domain (GST fusion)
# T1 sequence: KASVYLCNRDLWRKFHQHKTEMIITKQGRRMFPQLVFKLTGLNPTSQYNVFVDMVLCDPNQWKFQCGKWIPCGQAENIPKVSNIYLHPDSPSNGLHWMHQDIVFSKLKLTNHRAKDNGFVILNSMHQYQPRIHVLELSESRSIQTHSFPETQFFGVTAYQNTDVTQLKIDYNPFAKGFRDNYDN
# Assay: PBM E-score of 8-mer (E-score (dimensionless, -0.5 to 0.5)); Tbr is Tbrain of the sea star Patiria miniata (Pm) or the sea urchin Strongylocentrotus purpuratus (Sp); higher = stronger binding preference; most listed sequences are background and not binding sites
# Conditions: the construct has about 5 more residues each side
# Method in brief: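 Each ungapped 8-mer received an enrichment E-score from the Universal PBM Analysis Suite, averaged over duplicate arrays. The proteins were Tbr T-box DNA-binding domains, covering the whole T-box plus about five flanking residues, fused to GST and expressed in BL21 E. coli at 20 °C before glutathione affinity purification. Universal Agilent oligonucleotide arrays were made double-stranded by primer extension and incubated with 200 nM protein in PBS (pH 7.5). The arrays were then scanned and quantified, and every 8-mer was scored from probe intensities.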
row,Sequence,PBM E-score of 8-mer
1,TAGTATGA,-0.0698 ± 0.043
2,CGAAAGAG,-0.01 ± 0.052
3,CCGAGCCA,-0.0292 ± 0.017
4,TCAGGAAA,0.02 ± 0.024
5,ATATTGGA,-0.239 ± 0.051
6,AAGTGATC,0.0544 ± 0.029
7,CTCGGTCA,-0.12 ± 0.045
8,GATTACGC,0.0985 ± 0.028
9,ACCCGGGG,-0.0776 ± 0.019
10,TAGTGGGA,-0.0317 ± 0.03
11,CCTACGCC,0.0386 ± 0.019
12,AGAGCGAG,-0.192 ± 0.026
13,ACACACCA,0.287 ± 0.013
14,GTAGACGA,-0.126 ± 0.006
15,ATCACGCC,0.403 ± 0.0051
16,GACCAACA,0.0574 ± 0.006
17,ATAGAAGA,-0.317 ± 0.033
18,GCATCATA,0.0807 ± 0.004
19,ACATAGGT,0.221 ± 0.02
20,TCATAGAA,-0.301 ± 0.033
21,GACGATAC,-0.155 ± 0.015
22,GAAAGTAC,-0.136 ± 0.033
23,AGAGCCCC,-0.0852 ± 0.056
24,ACACTTGA,0.347 ± 0.0096
25,CCACATAC,0.105 ± 0.015

row,Sequence,PBM E-score of 8-mer
1,GGAGCGAA,-0.0764 ± 0.054
2,ATGGCATC,-0.0575 ± 0.033
3,AGATTTCA,-0.0179 ± 0.064
4,TATTAAGA,-0.213 ± 0.075
5,ATCTATTC,0.0975 ± 0.04
6,GTATTTGA,-0.208 ± 0.0046
7,CCTGTTCC,-0.1238 ± 0.00089
8,CGTCGCAC,0.327 ± 0.0036
9,ACGGGATG,-0.0468 ± 0.046
10,CGGTACGC,0.0539 ± 0.0026
11,GGGCAGTA,-0.153 ± 0.027
12,GGGTCACA,0.225 ± 0.021
13,CGCCATAA,0.0812 ± 0.1
14,GAGAACAC,0.253 ± 0.04
15,GAACCACA,-0.0748 ± 0.058
16,TCGAAGCA,-0.204 ± 0.022
17,ACCCAGAT,-0.0905 ± 0.038
18,ATAAGTCC,-0.249 ± 0.073
19,GACGTGAC,0.235 ± 0.032
20,CGGACGTC,-0.0698 ± 0.06
21,TACGGACA,-0.168 ± 0.017
22,AGAATGTC,-0.146 ± 0.031
23,ATCTTGTA,-0.11 ± 0.075
24,TACACGCA,0.0891 ± 0.028
25,TAAGCCAA,-0.358 ± 0.0043

row,Sequence,PBM E-score of 8-mer
1,ACACAATA,0.302 ± 0.021
2,GACAGTGA,0.167 ± 0.038
3,GAAAGCGA,0.0237 ± 0.13
4,AACTGCTA,0.0567 ± 0.044
5,AGCCTCTG,-0.113 ± 0.019
6,GATCTAGA,-0.0935 ± 0.028
7,ACATCCAT,-0.0117 ± 0.044
8,AACTAAGA,-0.0642 ± 0.072
9,CCCAAAGA,-0.272 ± 0.059
10,CAGGTGTC,0.4679 ± 0.0019
11,CGCCAAAC,0.145 ± 0.012
12,GAACCTAA,-0.296 ± 0.014
13,GGAGGGAA,-0.166 ± 0.0078
14,CAGACAGG,-0.0657 ± 0.12
15,GGCGATCA,0.0266 ± 0.025
16,AGATTGGA,-0.111 ± 0.024
17,CCTATACC,-0.253 ± 0.0033
18,GAAGATGC,-0.189 ± 0.027
19,ACGCGGTG,0.169 ± 0.074
20,AATACAAA,-0.191 ± 0.039
21,CCGATATC,0.0737 ± 0.065
22,AAGGGCTG,-0.183 ± 0.042
23,AATTGCCA,0.162 ± 0.044
24,CCATAGCG,-0.0419 ± 0.018
25,ATTGTCCG,-0.22 ± 0.019

row,Sequence,PBM E-score of 8-mer
1,AACACCTC,0.481 ± 0.0063
2,CGCATCGA,0.0384 ± 0.039
3,TATCACCA,0.154 ± 0.037
4,AGCCAGCT,-0.0946 ± 0.078
5,GGTACAAA,-0.143 ± 0.049
6,CTCGATGA,-0.0664 ± 0.017
7,CTCGCCCA,0.0556 ± 0.083
8,TAAAGCAA,-0.225 ± 0.083
9,CATTGCAA,-0.0503 ± 0.024
10,AATGCCGT,-0.122 ± 0.032
11,AGGACGAA,-0.278 ± 0.022
12,CATGAGCC,-0.132 ± 0.007
13,AATCACTA,-0.0801 ± 0.0095
14,ATTGGGGA,-0.114 ± 0.062
15,CGCAGTAG,-0.128 ± 0.026
16,AGCCTTCA,-0.0495 ± 0.025
17,CTAGTGAC,0.244 ± 0.03
18,TGCAGCCA,0.0121 ± 0.016
19,AACCACTA,0.0288 ± 0.049
20,GCTTAACC,-0.0161 ± 0.078
21,GGACGGGA,-0.121 ± 0.035
22,GAGTAAGA,-0.0459 ± 0.014
23,ATCACGGC,0.129 ± 0.013
24,GTTCCTGA,0.0353 ± 0.081
25,AGTGACGC,0.348 ± 0.022

row,Sequence,PBM E-score of 8-mer
1,AATATGAT,-0.116 ± 0.016
2,CGCTTTTA,-0.104 ± 0.029
3,ACGATCGA,0.109 ± 0.033
4,AGTGCAGC,-0.0647 ± 0.09
5,CTAGAGGC,-0.128 ± 0.021
6,CCGTCTCG,-0.0513 ± 0.098
7,GTGCCGGA,0.206 ± 0.02
8,AGATGCTA,-0.00214 ± 0.00037
9,ACACGTGG,0.299 ± 0.02
10,AAATGCAT,-0.157 ± 0.043
11,ATGACAGG,-0.0503 ± 0.027
12,CTGTCGGA,0.0257 ± 0.034
13,GGCATAAC,-0.0272 ± 0.059
14,AACATGGG,-0.139 ± 0.053
15,ACAAGTCA,0.0508 ± 0.05
16,TACAGTGA,0.121 ± 0.036
17,AGCAAGGC,-0.181 ± 0.059
18,CCAATCGC,0.164 ± 0.045
19,TCCAGCCA,-0.0223 ± 0.0094
20,ACCCTTGG,0.0586 ± 0.027
21,TGCAGGCA,-0.0688 ± 0.13
22,CGCATAAC,-0.013 ± 0.0046
23,ATTACGTC,-0.202 ± 0.081
24,AACTTGCT,-0.0229 ± 0.032
25,TATTCCGA,-0.289 ± 0.044

row,Sequence,PBM E-score of 8-mer
1,ACCTGGAG,-0.00128 ± 0.1
2,TACTGCAA,0.0535 ± 0.029
3,CGAAACAC,0.274 ± 0.011
4,GACTTCCC,-0.0358 ± 0.13
5,GCTCGACA,0.15 ± 0.033
6,CAGGCCTC,-0.159 ± 0.029
7,CACGATTC,0.151 ± 0.033
8,AACAAGGC,0.107 ± 0.049
9,CACGCGGC,0.165 ± 0.07
10,CAATACTC,-0.0432 ± 0.015
11,ATGAGCTC,-0.101 ± 0.039
12,CGATGGGC,-0.146 ± 0.025
13,CTCTGTTC,0.0449 ± 0.0023
14,CTAGAAAA,-0.139 ± 0.011
15,GGTAAAAA,-0.0109 ± 0.001
16,GCTAAAGA,0.0611 ± 0.0078
17,TCTGATAA,0.0597 ± 0.035
18,TATCCAAA,-0.372 ± 0.0061
19,AAGGACAC,-0.0247 ± 0.1
20,ACTGTCGC,0.284 ± 0.037
21,GGCTTCGA,-0.093 ± 0.07
22,CACAAAGA,-0.0119 ± 0.08
23,ACGTAGAT,-0.143 ± 0.093
24,AGGACCAC,-0.0512 ± 0.13
25,GATTCCAC,-0.0308 ± 0.059

row,Sequence,PBM E-score of 8-mer
1,GTCCTTTA,-0.246 ± 0.0032
2,GGCGGGAC,0.0322 ± 0.0027
3,ACCTCGTC,0.191 ± 0.09
4,CGCGCCAG,0.186 ± 0.0071
5,GTGCCTCA,0.0239 ± 0.0022
6,GGTGGAAA,0.151 ± 0.036
7,GGATAATA,-0.101 ± 0.063
8,AAAGATTC,-0.0748 ± 0.026
9,AAGGTGAC,0.381 ± 0.026
10,GTCGCAAC,0.305 ± 0.015
11,CTAACATA,0.0303 ± 0.024
12,GGCACGGA,-0.095 ± 0.035
13,CCTCTCTA,0.0363 ± 0.052
14,CTCTTGTA,-0.106 ± 0.021
15,GCGCGTGA,0.344 ± 0.033
16,AAAACCAC,-0.0027 ± 0.012
17,GGGTACAC,-0.0838 ± 0.098
18,CTCCATAC,0.04 ± 0.081
19,ACACTAGG,0.0471 ± 0.0091
20,GACGCTTA,0.117 ± 0.033
21,GAAGCTCC,-0.318 ± 0.042
22,CCCAAGCA,-0.215 ± 0.049
23,CATACAGC,-0.176 ± 0.052
24,GCTCCAGC,-0.22 ± 0.011
25,AGTCGTAA,-0.0364 ± 0.14

row,Sequence,PBM E-score of 8-mer
1,GCCACGGC,-0.0294 ± 0.015
2,GGGAGCAA,0.0394 ± 0.053
3,GCCGGAAA,-0.169 ± 0.063
4,TAGTCACA,0.252 ± 0.032
5,CTAAGGAG,-0.0981 ± 0.052
6,CCCGTATC,0.03 ± 0.011
7,GAGCCTCA,-0.08 ± 0.062
8,GGTTGCAC,0.179 ± 0.051
9,CATCCTAC,-0.0304 ± 0.0046
10,AGCCACTG,-0.161 ± 0.025
11,GAATCTAA,-0.0155 ± 0.12
12,AGCTGGCC,-0.194 ± 0.008
13,GATAGGGC,-0.0955 ± 0.047
14,GCGATTTA,0.267 ± 0.011
15,AAAGGAAT,-0.187 ± 0.0022
16,CCCCCGAA,-0.231 ± 0.0096
17,CAGTAGAC,0.0341 ± 0.037
18,GAATTAAC,-0.11 ± 0.015
19,GGTGGTTA,-0.0313 ± 0.02
20,CTGGTTGC,0.0436 ± 0.051
21,AACACAGA,-0.0143 ± 0.056
22,CACGGCGC,0.0862 ± 0.026
23,ACGGCTAT,-0.184 ± 0.0047
24,AAAATTGG,-0.204 ± 0.11
25,GGGCTCGA,-0.0858 ± 0.064

row,Sequence,PBM E-score of 8-mer
1,CCGTTGTC,0.247 ± 0.011
2,GAGCACGC,-0.103 ± 0.091
3,AAAGTCGA,-0.0294 ± 0.031
4,AACACGCT,0.185 ± 0.073
5,AATCATAC,-0.157 ± 0.004
6,ACCGTCTA,-0.0953 ± 0.012
7,CTGTGTCC,-0.0669 ± 0.021
8,CTTTTCTC,0.0829 ± 0.089
9,ACTCTAGC,0.0394 ± 0.066
10,ACTCGGTA,-0.137 ± 0.075
11,AAGATCAG,-0.263 ± 0.036
12,TAGCCCTA,-0.243 ± 0.061
13,CCTATTCG,-0.116 ± 0.11
14,CTCTGATA,0.0194 ± 0.0074
15,CGCGCAGC,0.00958 ± 0.11
16,CAAGTCTA,-0.11 ± 0.011
17,TAGGGCGA,-0.00769 ± 0.086
18,TAATGAGA,-0.108 ± 0.049
19,CCTGGTCC,-0.00359 ± 0.025
